# Screen size: about 310,000 compounds; about 18,000 (5.8%) were called active. The inconclusive results got no clear call from the source; some entries with a clear call stand among them for comparison. The call rests on the fitted dose curve; in most records, active means well fitted inhibition curve with a large enough effect; inconclusive means small, poorly fitted or top-dose-only effect, or another doubt; inactive means no such curve, though single readings can be large or run the other way. No potency is given beside an inconclusive call; the fits are too rough.
# Assay: Primary qHTS for delayed death inhibitors of the malarial parasite plastid, 48 hour incubation
# Settings: P. falciparum luciferase growth in erythrocytes; series mostly up to 28.7 µM; activity change, negative = inhibition: at the top concentration
# Procedure, shortened: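 Firefly luciferase activity from engineered P. falciparum reports growth; inhibitors lower the luminescent signal. Cultures contained 2% hematocrit erythrocytes at 0.1% final parasitemia.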
# On the % scale 0 is the no-effect control and ±100 the full control effect; potency means the concentration at half of the fitted maximal effect; tags describe the fitted curve by direction and shape.
SMILES,"activity change, negative = inhibition",Potency
COc1cc2c(cc1C=O)OC(C)C2 (stereo not drawn),inactive: 8.41%,–
CCOc1ccc(CCNC(=O)C2CC(=O)N(CCc3ccccc3)C2)cc1OCC (stereo not drawn),inactive: -2.38%,–
Cc1nn(-c2ccccc2)c(Cl)c1C1C(C#N)=C(N)Oc2c1c(C)nn2-c1ccccc1 (stereo not drawn),–,active: 10.4 µM
O=C(NCC(c1cccs1)N1CCOCC1)c1ccc(Cl)c(S(=O)(=O)N2CCOCC2)c1 (stereo not drawn),–,"inconclusive [inhibitor, partial curve]"
Cc1cc(/C=C(/C#N)c2cccc(F)c2)c(C)n1-c1cccnc1,–,"inconclusive [inhibitor, single point]"
COC(OC)c1ccc(C#N)c(=O)[nH]1,–,"inconclusive [inhibitor, full curve, poor fit]"
O=C(NCc1ccco1)C(c1ccncc1)N(C(=O)Cn1nnc2ccccc21)c1ccccc1 (stereo not drawn),inactive: -14%,–
COc1ccc(N2CCN(C(=O)NCc3cccc(OC)c3)CC2)cc1,inactive: 6.44%,–
CCCCc1ccc2[nH]cc(CCN)c2c1,–,"inconclusive [inhibitor, partial curve, poor fit]"
CCc1ccc(C(=O)Nc2nnn(CC)n2)cc1,inactive: 59%,–
O=C(N/N=C1/CC2CCC1C2)c1cc2ccccc2cc1O (stereo not drawn),–,"inconclusive [inhibitor, partial curve]"
Cc1cccn2c(=O)c(C=C(C#N)C#N)c(N3CCN(c4ccccc4)CC3)nc12,–,"inconclusive [inhibitor, single point]"
CN(Cc1ccccc1)Cc1ccccc1OC(=O)N(C)C,inactive: 18.8%,–
COc1cc(/C=C/C(=O)OCC(=O)Nc2cccc(Oc3ccccc3)c2)ccc1O,–,"inconclusive [inhibitor, single point]"
CN(C)S(=O)(=O)c1cccc(NC(=O)COC(=O)CCC(=O)c2ccc(F)cc2)c1,inactive: 22%,–
CC(C)[C@H](NC(=O)c1ccccc1Br)C(=O)OCc1nc2ccsc2c(=O)[nH]1,inactive: 11.7%,–
CCO[C@@H]1OC(C(=O)Nc2ccccc2)=C[C@H](c2ccc(Br)cc2)[C@H]1CCCO,–,"inconclusive [inhibitor, single point]"
N#CCCN(C(=O)CCl)c1cccc(Cl)c1,–,"inconclusive [inhibitor, partial curve, poor fit]"
O=C(Nc1ccc(Cl)cc1)c1ccc(-n2cncn2)c([N+](=O)[O-])c1,–,"inconclusive [inhibitor, single point]"
C=CCCN(C(CC(C)C)C(=O)OC)S(=O)(=O)c1ccccc1Br (stereo not drawn),–,"inconclusive [inhibitor, single point]"
CCOC(=O)N1CCN(c2nc3c(C)cccn3c(=O)c2C=O)CC1,–,"inconclusive [inhibitor, partial curve]"
CN(C(=O)c1ccc(S(=O)(=O)N(C)C)cc1)c1ccc2ccccc2c1,–,"inconclusive [inhibitor, partial curve]"
Cc1ccc(S(=O)(=O)Oc2ccc(/C=N/NC(=O)c3cccnc3)cc2)cc1,inactive: 13.7%,–

SMILES,"activity change, negative = inhibition",Potency
OCC(Cc1ccccc1)NCc1ccccc1C(F)(F)F (stereo not drawn),inactive: -6.39%,–
Cn1c(=O)c2c(nc(N3CCOCC3)n2CCSc2ncccn2)n(C)c1=O,inactive: -4.29%,–
O=C(c1nc2ccc(Cl)cn2c1CNCCn1ccnc1)N1CCCCCCC1,–,"inconclusive [inhibitor, single point]"
CNC(=O)C1CCN(S(=O)(=O)c2c(C)noc2/C=C/c2ccc(OC)cc2)CC1,–,"inconclusive [inhibitor, single point]"
O=C1/C(=C/c2cccc(O)c2)SC(=S)N1CC1CCCO1 (stereo not drawn),–,"inconclusive [inhibitor, partial curve, poor fit]"
CCN1C(=O)[C@H]2[C@@H](c3ccc(-c4ccccc4)cc3)N[C@@](Cc3ccccc3)(C(=O)OC)[C@H]2C1=O,–,active: 10.4 µM
Cn1cccc1Cc1nnc(SCC(=O)Nc2nccs2)n1CCc1ccccc1,–,"inconclusive [inhibitor, single point]"
Cc1ccccc1-c1nc(CS(=O)CC(=O)NC2CCCCC2)c(C)o1 (stereo not drawn),inactive: 23.5%,–
COc1cc(CNCCSc2nnnn2C)cc(Br)c1OCc1ccc(F)cc1,–,"inconclusive [inhibitor, single point]"
COc1ccc(S(=O)(=O)NCC2CCCN(Cc3ccc(O)cc3)C2)cc1 (stereo not drawn),–,"inconclusive [inhibitor, single point]"
O=C(OC(c1ccccc1)c1nccc2ccccc12)c1cccc([N+](=O)[O-])c1 (stereo not drawn),inactive: 1.51%,–
O=C(CCc1ccccc1)Nc1cc(Cl)ccc1O,–,active: 10.4 µM
CCCCS(=O)(=O)CC(COc1ccccc1)OC(=O)c1ccccc1 (stereo not drawn),–,"inconclusive [inhibitor, partial curve, poor fit]"
O=C1CC(c2ccc(F)cc2)C2=C(CCCC2=O)N1 (stereo not drawn),–,"inconclusive [inhibitor, full curve, poor fit]"
COc1ccc2[nH]c(=O)c(CN(c3ccccc3OC)S(=O)(=O)c3ccccc3)cc2c1,–,"inconclusive [inhibitor, partial curve, poor fit]"
COc1cccc(-c2ccc(NC(=O)C3CCCN(Cc4cnc(C)n4C)C3)cc2)c1 (stereo not drawn),–,"inconclusive [inhibitor, partial curve]"
CCN(CC(=O)NCc1ccc(F)cc1)C(=O)/C=C/c1ccc(S(=O)(=O)N(CC)CC)cc1,–,"inconclusive [inhibitor, partial curve]"
COc1ccc(Cl)cc1C(=O)NCCCSc1ccccc1,–,"inconclusive [inhibitor, single point]"
CNC(=O)c1cc2c(=O)n3cccc(C)c3nc2n(C(C)C)c1=N,inactive: 0.342%,–
CCCCc1nnc(NC(=O)CN(C)S(=O)(=O)c2ccc(C)cc2)s1,–,"inconclusive [inhibitor, single point]"
CC(C)CCNC(=O)CN(Cc1cccs1)C(=O)CCC(=O)Nc1nccs1,–,"inconclusive [inhibitor, single point]"
CCOC(=O)C1CCCN(C(=O)c2cnn3c(C(F)(F)F)cc(-c4ccccc4)nc23)C1 (stereo not drawn),–,active: 9.28 µM
COCc1nnc(NC(=O)CSc2ccc(C)cc2)s1,–,"inconclusive [inhibitor, full curve, poor fit]"

SMILES,"activity change, negative = inhibition",Potency
Cc1[nH]c2ccccc2c1/C=N/Nc1ccc([N+](=O)[O-])cc1,–,"inconclusive [inhibitor, single point]"
c1ccc(-c2csc3ncnc(N4CCc5ccccc5C4)c23)cc1,–,active: 11.7 µM
COc1ccc(/C=C2\CN(Cc3ccccc3)C/C(=C\c3ccc(OC)cc3OC)C2=O)c(OC)c1,–,"inconclusive [inhibitor, partial curve, poor fit]"
CCN(CC(=O)Nc1ccc(OC)cc1)C(=O)c1ccc(=O)n(Cc2ccccc2)n1,–,"inconclusive [inhibitor, single point]"
CCCC(=O)Nc1ccccc1Sc1ncnc2scc(-c3ccccc3)c12,–,active: 4.65 µM
O=C(/C=C/c1ccccc1)NC1CC2CCC1C2 (stereo not drawn),inactive: -1.89%,–
COc1ccccc1CNC(=O)C1CCN(S(=O)(=O)c2ccc3c(c2)C(C)(C)C(=O)N3C)CC1,–,"inconclusive [inhibitor, partial curve, poor fit]"
Cc1ccc(N/N=C/c2ccc3c(c2)OCCO3)cc1Cl,–,"inconclusive [inhibitor, partial curve]"
COc1ccc(-n2cc(C(=O)c3cc(Cl)ccc3O)cc(C#N)c2=O)cc1,–,"inconclusive [inhibitor, partial curve, poor fit]"
Cc1ccc(S(=O)(=O)N2CCCCC2)cc1NC(=O)Cn1ccc(C(F)(F)F)n1,–,"inconclusive [inhibitor, partial curve, poor fit]"
CCOc1ccc(S(=O)(=O)N2CCC(C(=O)OCc3ccc(OC)cc3)CC2)cc1,–,"inconclusive [inhibitor, single point]"
Cc1cc(C)c2[nH]c(=O)c(C(c3nnnn3CC3CCCO3)N3CCCC(C)C3)cc2c1 (stereo not drawn),–,active: 14.7 µM
CCC(C)(C)NC(=O)C(c1ccco1)N(C(=O)Cn1nnc2ccccc21)c1ccc2c(c1)OCO2 (stereo not drawn),–,"inconclusive [inhibitor, single point]"
Cc1ccc(S(=O)(=O)N2CCN(S(=O)(=O)c3ccc(C)cc3)C2c2ccccc2)cc1,–,"inconclusive [inhibitor, single point]"
CCOc1cc(-c2nc(C)c(C(C)=O)n2O)ccc1OCC(=O)Nc1cccc(C)c1,inactive: -11.9%,–
N/C(=N\N=C\c1ccnc2ccccc12)SC1CC(=O)N(c2ccc(Br)cc2)C1=O (stereo not drawn),–,"inconclusive [inhibitor, single point]"
COc1ccc(C(c2c(NC(C)=O)sc3c2CCCC3)N2CCN(CCO)CC2)cc1OC (stereo not drawn),–,active: 4.65 µM
O=C(CCc1nc2ccccc2[nH]1)Nc1ccc2c(c1)OCO2,inactive: -22.9%,–
CCNCCC(=O)N1c2ccccc2Sc2ccc(NC(=O)OCC)cc21,–,"inconclusive [inhibitor, partial curve]"
COc1ccccc1-c1nc2ccccc2nc1-c1ccccc1,–,"inconclusive [inhibitor, single point]"
O=C(c1ccc(S(=O)(=O)c2ccccc2Cl)c([N+](=O)[O-])c1)N1CCCCCC1,–,"inconclusive [inhibitor, partial curve]"
CC(C)(C)NC(=O)CN1CCN(C(=O)CCl)CC1,–,"inconclusive [inhibitor, single point]"
